Experimental data from PubChem BioAssay AID624417 (National Center for Advancing Translational Sciences (NCATS), 2012).
The whole screen tested about 410,000 compounds, of which about 6,400 (1.6%) were called active. Inconclusive means that the source gave no clear call. Such entries were picked first, then a sample of the others. Calls follow the shape of the dose curve; as a rule, active = well fitted inhibition curve with a large enough effect; inconclusive = small, poorly fitted or top-dose-only effect; inactive = no such curve, though single readings can be large or run the other way. Where the call is inconclusive, the potency comes from a doubtful curve fit.

The compounds below were run against Glucagon-like peptide 1 receptor (Homo sapiens) (UniProt P43220) (assay: qHTS of GLP-1 Receptor Inverse Agonists (Inhibition Mode)). Conditions: HEK293 GLP-1R CRE-luciferase, luminescence, 24 h, GLP-1R form is constitutively active; activity change, negative = inhibition: at 38.3 µM (top of the series) unless noted.
Procedure, shortened: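 HEK293 cells stably co-expressing a cAMP-responsive luciferase reporter and constitutively active GLP-1R were seeded, incubated 12 h, then exposed to compounds for 24 h at 37 C. Luminescence was read 12 min after detection reagent; inverse agonists lower signal.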
% is scaled to controls: 0 for no effect and ±100 for the full control effect; potency is read from the fitted curve at half-maximal effect; tags tell the direction and shape of the fitted curve.
Also: nearly all actives have a fitted effect of over 55% in size.

UniProt P43220, sequence (P43220 whole entry, looked up): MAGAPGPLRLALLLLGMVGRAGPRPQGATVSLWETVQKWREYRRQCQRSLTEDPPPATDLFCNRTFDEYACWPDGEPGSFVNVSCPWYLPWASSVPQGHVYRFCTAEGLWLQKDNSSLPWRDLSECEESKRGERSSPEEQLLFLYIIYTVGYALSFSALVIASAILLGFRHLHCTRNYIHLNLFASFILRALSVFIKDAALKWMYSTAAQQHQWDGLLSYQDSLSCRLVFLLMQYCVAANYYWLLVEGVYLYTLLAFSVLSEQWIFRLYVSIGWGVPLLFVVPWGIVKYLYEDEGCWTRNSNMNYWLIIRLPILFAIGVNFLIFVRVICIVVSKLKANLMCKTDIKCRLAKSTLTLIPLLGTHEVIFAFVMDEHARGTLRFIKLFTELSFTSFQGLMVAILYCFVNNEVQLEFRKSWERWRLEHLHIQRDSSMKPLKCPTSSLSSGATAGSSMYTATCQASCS

Potency, inconclusive:
COC(=O)c1ccc(CN2CCC(Oc3cccc(C(=O)N4CCCC4)c3)CC2)cc1 8.91 µM [inhibitor, partial curve, poor fit]
Cc1ccc(NC2=C(Cl)C(=O)OC2OC(C)C)cc1 (stereo not given) 10 µM [inhibitor, partial curve, poor fit]
Cc1ccccc1C(=O)c1ccccc1C(=O)c1ccccc1 11.2 µM [inhibitor, single point]
Cc1cc(O)cc(O)c1/C=N/NC(=O)c1ccc2c(c1)OCCO2 3.16 µM [inhibitor, full curve]
O=C(/C=C/c1ccc(OC(F)F)cc1)Nc1cccc(S(=O)(=O)N2CCOCC2)c1 31.6 µM [inhibitor, partial curve, poor fit]
COc1ccc(-c2noc(COc3cc(C)ccc3C)n2)cc1OC 28.2 µM [inhibitor, single point]
COc1cc([N+](=O)[O-])ccc1NC(=O)COC(=O)c1n[nH]c2ccccc12 31.6 µM [inhibitor, single point]
CC(OC(=O)c1ccccc1Nc1ccc(SC(F)F)cc1)C(N)=O (stereo not given) 10 µM [inhibitor, partial curve, poor fit]
COc1ccc(C2=C(C)C(=O)N(Cc3ccc(C(=O)NCc4cccc(C)c4)cc3)S2(=O)=O)cc1 12.6 µM [inhibitor, partial curve, poor fit]
Cc1ccc(/C=N/NC(=O)c2ccc(-c3ccccc3)cc2)o1 8.91 µM [inhibitor, partial curve, poor fit]
FC(F)(F)C1=CC(c2ccc(Cl)cc2)=NCCN1 7.94 µM [inhibitor, partial curve]
CCCC(C)NC(=O)c1cccc(Oc2ccccc2)c1 (stereo not given) 3.98 µM [inhibitor, partial curve, poor fit]
COc1ccc2c(c1)C(=O)CC(c1ccccc1)O2 (stereo not given) 28.2 µM [inhibitor, single point]
COc1ccc(OC)c2c1sc(=NC(=O)C(C)C)n2C 10 µM [inhibitor, partial curve, poor fit]
CCOC(=O)c1c(-c2cccs2)csc1NC(=O)CN1CC(C)OC(C)C1 (stereo not given) 28.2 µM [inhibitor, single point]
CCCCCCN1C(=O)C(O)=C(C(C)=O)C1c1ccc(Cl)cc1 (stereo not given) 11.2 µM [inhibitor, partial curve, poor fit]
COc1ccc(OC)c(C2CC(=O)c3c([nH]c(C(=O)OC(C)C)c3C)C2)c1 (stereo not given) 1 µM [inhibitor, full curve, poor fit]
CCn1c(COc2ccc3c(c2)OCO3)nnc1SCC(=O)c1ccccc1 11.2 µM [inhibitor, single point]
CCOc1cc(C=O)c(Br)cc1OC1CCCC1 8.91 µM [inhibitor, partial curve]
CCN(CC)C(=O)c1ccc(Nc2nnc(-c3ccc(C)c(S(=O)(=O)NC)c3)c3ccccc23)cc1 28.2 µM [inhibitor, single point]
Cc1onc(-c2ccccc2)c1-c1csc(N/N=C/c2ccccc2Cl)n1 11.2 µM [inhibitor, partial curve, poor fit]
COc1ccc(NC(=S)NC(=O)Cc2ccccc2)c(OC)c1 31.6 µM [inhibitor, single point]
CCOc1ccccc1NC(=S)NC(=O)C1CCCCC1 3.98 µM [inhibitor, full curve]
CSc1ccccc1NC(=O)COc1ccc(Cl)cc1 28.2 µM [inhibitor, single point]
COc1cc(/C=C2\SC(=S)N(NS(=O)(=O)c3ccc(C)cc3)C2=O)ccc1O 11.2 µM [inhibitor, partial curve]
O=C(COc1ccccc1[N+](=O)[O-])N(Cc1cccc(Br)c1)C1CCS(=O)(=O)C1 (stereo not given) 5.62 µM [inhibitor, partial curve, poor fit]
Clc1ccc(Cn2c(/C=C/c3ccco3)nc3ccccc32)cc1 28.2 µM [inhibitor, single point]
c1ccc(CNc2nc(-c3cccs3)nc3ccccc23)cc1 10 µM [inhibitor, partial curve, poor fit]
COc1ccc(OC)c(S(=O)(=O)N2CCCC2C(=O)N2CCc3ccccc3C2)c1 (stereo not given) 12.6 µM [inhibitor, single point]
CCCC(=O)NC(c1ccccc1)c1c(O)ccc2ccccc12 (stereo not given) 12.6 µM [inhibitor, partial curve, poor fit]
Cc1ccc(NS(=O)(=O)c2cccc(C(=O)NCC(c3ccco3)N3CCCC3)c2)cc1 (stereo not given) 12.6 µM [inhibitor, partial curve, poor fit]
CCOC(=O)c1c(C)n(-c2ccccc2)c2ccc(OC(=O)c3cccc(OC)c3OC)cc12 15.8 µM [inhibitor, partial curve, poor fit]

Activity change, negative = inhibition, inactive:
O=C(COc1ccc(F)cc1)Nc1ccc2nc(SCC(=O)N3CCOCC3)sc2c1 -10.8%
CC(C)c1ccc(N2C(=O)CSC23C(=O)N(C)c2ccccc23)cc1 (stereo not given) -2.97%
O=C1[C@@H]2CSC(c3ccc(Cl)cc3)N2C(=O)N1c1ccccc1 (stereo not given in full) -2.13%
CNc1ncc(C(=O)c2ccc(Cl)c(Cl)c2)s1 2.71%
CCc1nnc2c(N3CCN(c4cc(Cl)ccc4C)CC3)nc3ccccc3n12 11.8%
CSCCC(c1nc2ccccc2[nH]1)n1c(=O)c(-c2cccnc2)nc2ccccc21 (stereo not given) -14.9%
Cc1c(CC(=O)N[C@@H](C)C(=O)O)c(=O)oc2cc3c(cc12)CCC(C)(C)O3 1.92%
Cc1oc(-c2ccccc2Cl)nc1CSc1nc2ncccc2[nH]1 5.41%
